Screen size: about 48,000 compounds; about 550 (1.1%) were called active. Another 4% or so got no clear call; they are omitted. Cut-off read from the data, not from the text of the source: active = potency below about 15 µM; inconclusive = mostly about 16 µM to 33 µM; inactive = weaker than that. This is one part of the list. Some results are limits rather than exact numbers.
Potency is the fitted concentration of half-maximal effect.

UniProt P04062, sequence (P04062 whole entry, looked up): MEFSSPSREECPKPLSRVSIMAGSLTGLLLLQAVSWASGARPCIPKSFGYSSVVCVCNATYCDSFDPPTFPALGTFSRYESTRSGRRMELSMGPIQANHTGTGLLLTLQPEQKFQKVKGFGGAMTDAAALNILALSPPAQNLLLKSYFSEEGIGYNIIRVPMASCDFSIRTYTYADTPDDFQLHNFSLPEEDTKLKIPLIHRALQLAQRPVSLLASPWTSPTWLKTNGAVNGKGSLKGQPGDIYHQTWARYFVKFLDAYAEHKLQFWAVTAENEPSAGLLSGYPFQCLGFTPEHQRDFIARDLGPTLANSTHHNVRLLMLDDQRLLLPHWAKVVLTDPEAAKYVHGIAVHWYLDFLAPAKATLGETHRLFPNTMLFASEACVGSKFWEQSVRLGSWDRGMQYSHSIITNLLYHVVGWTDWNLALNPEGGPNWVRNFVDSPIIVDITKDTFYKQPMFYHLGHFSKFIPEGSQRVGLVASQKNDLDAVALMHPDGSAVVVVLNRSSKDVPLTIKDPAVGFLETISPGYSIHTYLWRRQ

For the assay, the target named is Lysosomal acid glucosylceramidase (Homo sapiens) (UniProt P04062). Kind of assay: Glucocerebrosidase.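 Note: the screen sought inhibitors.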 The conditions noted are these: purified enzyme, resorufin glucoside fluorescence (screen aimed at inhibitors), 20 min. The procedure, abridged:
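Compounds titrated against 0.2 nM normal enzyme, 30 uM resorufin beta-D-glucopyranoside substrate, citrate/phosphate buffer with taurocholate and tween-20, pH 5.9. Reaction ran 20 min at room temperature; fluorescence (Ex 548/Em 600) gave AC50.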
Regarding `CCOc1ccc(OCC)c(NC(=O)CN2CCN(C(=O)c3ccco3)CC2)c1`, the Potency was inactive: > 76.9 µM.

On to `Cc1cc2oc(=O)c3c(c2cc1OC(=O)c1ccco1)CCCC3`, for which the Potency was inactive: > 76.9 µM.

`CCOC(=O)c1c(N)sc(C(=O)N2CCOCC2)c1C`: the Potency is inactive: > 76.9 µM.

With `Cc1noc(C)c1C(=O)OCC(=O)/C=C1\N(C)c2ccccc2C1(C)C`, the Potency was inactive: > 76.9 µM.

Turning to `CC1(C)CC(=O)C2=C(C1)Nc1ncnn1C2c1ccccn1` (configuration not stated), the Potency was inactive: > 76.9 µM.

Turning to `O=C(CSCCO)Nc1cc(C(F)(F)F)ccc1Cl`, the Potency is inactive: > 76.9 µM.

Turning to `CCOC(=O)CN1C(=O)SC(CC(=O)Nc2nccs2)C1=O` (configuration not stated), the Potency is inactive: > 76.9 µM.

For `C=CCNS(=O)(=O)c1ccc(OC)c(C)c1`, the Potency is inactive: > 76.9 µM.

Regarding `Cc1ccc(-c2cc(C(=O)NCc3ccc4c(c3)OCO4)no2)cc1`, the Potency is inactive: > 76.9 µM.

Turning to `CCOC(=O)c1sc(NC(=O)CSc2ncccn2)c(C#N)c1C`, the Potency is inactive: > 76.9 µM.

In the case of `Clc1cc2c(c(Cn3cnc4ccccc43)c1)OCOC2`, the Potency was inactive: > 76.9 µM.

For `CCN(CC)S(=O)(=O)c1ccc2c(c1)c(=O)c(C(=O)N1CCN(c3ccccc3)CC1)cn2C`, the Potency is inactive: > 76.9 µM.

For the compound `CC(C)(C)C(=O)NC1CCN(S(=O)(=O)c2ccccc2F)CC1`, the Potency is inactive: > 76.9 µM.

Consider `CNS(=O)(=O)c1cccc(C(=O)NCC(c2cccs2)N(C)C)c1` (configuration not stated), for which the Potency was inactive: > 76.9 µM.

Regarding `O=C(NC1CCCC1)C(c1ccccc1F)N(C(=O)c1ccco1)C1CCCC1` (configuration not stated), the Potency is inactive: > 76.9 µM.

In the case of `O=C(Nc1ccc(-n2cnnn2)cc1)C1CCCN1C(=O)NC1CCCCC1` (configuration not stated), the Potency was inactive: > 76.9 µM.

On to `COC(=O)CSc1nnc(-c2ccccn2)n1Cc1ccco1`, for which the Potency is inactive: > 76.9 µM.

On to `Cc1occc1-c1nnc(SCc2cc(=O)n3cc(Br)ccc3n2)n1C`, for which the Potency is inactive: > 76.9 µM.

Consider `CCC(c1nnnn1CCc1ccccc1)N(Cc1ccco1)Cc1cc2cc(C)cc(C)c2[nH]c1=O` (configuration not stated), for which the Potency was inactive: > 76.9 µM.

Consider `CC(=O)Nc1ccc(N/C=C/C(=O)c2ccc(C)o2)cc1`, for which the Potency is inactive: > 76.9 µM.

For the compound `CCc1nc(SCC(=O)N2CCCC2)c2ccccc2n1`, the Potency was inactive: > 76.9 µM.

Consider `CCOC(=O)c1ccc(Nc2cc(C)nc(N3CCOCC3)n2)cc1`, for which the Potency was active: 8.47 µM.

As to `Cc1cc(C)cc(-n2nnc(C(=O)NCc3ccco3)c2N)c1`, the Potency was inactive: > 76.9 µM.

For the compound `Cc1c(NC(=O)c2cc(-c3ccccc3)on2)c(=O)n(-c2ccccc2)n1C`, the Potency is inactive: > 76.9 µM.

On to `CS(=O)(=O)N(CC(=O)N1CCOCC1)Cc1ccc(Cl)cc1`, for which the Potency was inactive: > 76.9 µM.

Consider `COc1ccc(N2CCN(C(=O)c3cccc(Cn4cc(Cl)cn4)c3)CC2)cc1`, for which the Potency was inactive: > 76.9 µM.

Regarding `O=C1C2C(C(=O)N1Cc1ccco1)C1C=CC2C12CC2` (configuration not stated), the Potency was inactive: > 76.9 µM.

Consider `Cc1ccc(C)n1-n1c(C)nc2sc3c(c2c1=O)CCCCC3`, for which the Potency is inactive: > 76.9 µM.

For the compound `CCOC(=O)Cn1cc(C(=O)C2CC2)c2ccccc21`, the Potency is inactive: > 76.9 µM.

Regarding `CCN(CC)c1cccc(OCC(=O)N(C)CCC#N)c1`, the Potency is inactive: > 76.9 µM.

Regarding `CC(Sc1cccc2cccc(C(=O)O)c12)C(=O)O` (configuration not stated), the Potency is inactive: > 76.9 µM.

Turning to `Cc1nnc(NCc2ccncc2)c2ccccc12`, the Potency is inactive: > 76.9 µM.

As for `Cc1ccc(OCCN2CCN(C(=O)CCC(=O)Nc3nnc(C(C)C)s3)CC2)cc1`, the Potency was inactive: > 76.9 µM.

Regarding `CCc1nc2ccccc2n1CCC(C)C`, the Potency was inactive: > 76.9 µM.

With `Nc1nc(SCc2ccc3c(c2)OCCO3)n[nH]1`, the Potency was inactive: > 76.9 µM.

On to `CCCn1cc(S(=O)(=O)CC(=O)N2CCc3ccccc32)c2ccccc21`, for which the Potency is inactive: > 76.9 µM.

Turning to `CCOc1ccccc1NC(=O)C1CCN(c2ccc(S(=O)(=O)N3CCCC3)cc2)CC1`, the Potency was inactive: > 76.9 µM.

Consider `CC1(C)N=C(c2cccc(F)c2)C(=O)N1`, for which the Potency is inactive: > 76.9 µM.

Turning to `Nc1nonc1-c1nc2ccccc2n1Cc1ccccc1`, the Potency was inactive: > 76.9 µM.

Take `CC(=O)Nc1nonc1-n1nnc(C(=O)NCc2ccccc2)c1C`: the Potency was inactive: > 76.9 µM.

On to `Cc1cc(NCCCn2ccnc2)n2c(nc3ccccc32)c1C#N`, for which the Potency was inactive: > 76.9 µM.

Consider `COc1ccc(CCNC(=O)CCn2c(SCC#N)nc3ccccc3c2=O)cc1OC`, for which the Potency is inactive: > 76.9 µM.

Take `COc1ccccc1C1N(c2ccc(Cl)cc2)C(=O)C2CCCN21` (configuration not stated): the Potency was inactive: > 76.9 µM.

For `OCc1nc2ccccc2n1CC(O)Cn1ccc2ccccc21` (configuration not stated), the Potency was inactive: > 76.9 µM.

For the compound `COc1ccc(NC(=O)C2OCCc3ccccc32)c(OC)c1` (configuration not stated), the Potency is inactive: > 76.9 µM.

In the case of `O=C1CC(c2ccc3c(c2)OCO3)c2cc3c(cc2N1)OCO3` (configuration not stated), the Potency was inactive: > 76.9 µM.

For `O=C(O)CCN1CCc2ccccc21`, the Potency is inactive: > 76.9 µM.

For the compound `CN(CC(=O)N1CCc2ccccc21)S(=O)(=O)c1ccc(Br)s1`, the Potency result is “inactive”.

For `COc1ccc(CCNC(=O)C2CCN(S(=O)(=O)N3CCOCC3)CC2)cc1OC`, the Potency was inactive: > 76.9 µM.

`COc1ccc(-c2nnc(SCCOc3cccc(C)c3)n2N)cc1`: the Potency is inactive: > 76.9 µM.

Consider `CCN(Cc1ccccc1)S(=O)(=O)c1ccc2oc(C(=O)O)c(C)c2c1`, for which the Potency is inactive: > 76.9 µM.

Consider `COC(=O)c1sc2nc3c(cc2c1N)C(=O)CC(C)(C)C3`, for which the Potency was inactive: > 76.9 µM.

For `Cc1cccc(NC(=O)CCN2CCN(C/C=C/c3ccccc3)CC2)c1`, the Potency is inactive: > 76.9 µM.

As for `Cc1ccc(C)c(NC(=O)CSc2nnc(-c3ccccc3C)o2)c1`, the Potency was inactive: > 76.9 µM.

`CCOC(=O)/C(C#N)=C1/CCCCCN1C`: the Potency was inactive: > 76.9 µM.

Regarding `COc1ncnc2c1N[C@@](C)(O)c1c(F)c(F)c(F)c(F)c1S2`, the Potency is inactive: > 76.9 µM.

As to `COc1ccccc1NC(=O)Nc1c(C)n(C)n(-c2ccccc2)c1=O`, the Potency is inactive: > 76.9 µM.

For `Cc1nc(-c2ccccc2)nc2[nH]c(=O)n(-c3ccccc3)c(=O)c12`, the Potency is inactive: > 76.9 µM.

With `COc1ccc(C2C(C(=O)Nc3cccc(C)n3)CCC(=O)N2c2ccc(OC)cc2)cc1` (configuration not stated), the Potency is inactive: > 76.9 µM.

As for `COc1ccc(-c2[nH]nc3oc(=O)cc(C)c23)cc1`, the Potency is inactive: > 76.9 µM.

Turning to `CCOC(=O)N1CCN(c2cc(=O)n(-c3ccc(OC)cc3)c(=O)[nH]2)CC1`, the Potency is inactive: > 76.9 µM.

With `COc1ccc(Cc2nnc(SCc3nc4ccccc4c(=O)[nH]3)o2)cc1`, the Potency is inactive: > 76.9 µM.

Take `COc1ccc2cc3cc(C(=O)NCCN4CCN(Cc5ccccc5)CC4)oc3nc2c1`: the Potency is inactive: > 76.9 µM.

For the compound `CC12CC(NC(=O)N1c1cccc(C(=O)N3CCN(c4ccccc4)CC3)c1)c1ccccc1O2` (configuration not stated), the Potency was inactive: > 76.9 µM.

As for `Cc1cc(NC(=O)c2noc3c2CCCCC3)no1`, the Potency is inactive: > 76.9 µM.

Regarding `CCN1C(=O)/C(=C\N2CCCc3ccccc32)SC1=S`, the Potency was inactive: > 76.9 µM.

On to `COc1ccc(-c2nnc3sc(CCN4C(=O)c5ccccc5C4=O)nn23)cc1`, for which the Potency entry was “inactive”.

`COc1cc2c(cc1OC)CN(C(=O)Cc1ccc(OC)c(S(=O)(=O)N3CCOCC3)c1)CC2`: the Potency is inactive: > 76.9 µM.

Turning to `COc1ccc(OC)c(C(=O)COC(=O)CNC(=O)C2CCCCC2)c1`, the Potency is inactive: > 76.9 µM.

As for `Cc1ccccc1Nc1nnc(C)c(=O)[nH]1`, the Potency entry is “inactive”.

In the case of `CCOC(=O)C1=C(C)NC(=O)NC1c1c(C)nn(-c2ccccc2)c1Cl` (configuration not stated), the Potency is inactive: > 76.9 µM.

On to `CC1CCN(c2oc(Cc3cccc4ccccc34)nc2C#N)CC1`, for which the Potency was inactive: > 76.9 µM.

As for `CC(C)C[C@H](N)c1nnc(S(=O)(=O)Cc2ccc(F)cc2)o1`, the Potency is inactive: > 76.9 µM.

Turning to `Cc1ccccc1-n1c(C)nnc1SCC(=O)NCC1CCCO1` (configuration not stated), the Potency is inactive: > 76.9 µM.

In the case of `N#Cc1nc(-c2ccccc2Cl)oc1NCc1ccco1`, the Potency was inactive: > 76.9 µM.

For `CCC1CCCCN1C(=O)CSc1nnc(-c2c[nH]c3ccccc23)o1` (configuration not stated), the Potency is inactive: > 76.9 µM.

For the compound `Cc1cc(C)n(-c2nc3ccccc3n3nnnc23)n1`, the Potency was inactive: > 76.9 µM.

Consider `COc1ccc(-c2cc(C(=O)Nc3cnn(Cc4ccccc4C)c3)no2)cc1OC`, for which the Potency is inactive: > 76.9 µM.

With `N#Cc1c(-c2ccco2)cc(-c2ccc(F)cc2)nc1N`, the Potency is inactive: > 76.9 µM.

For the compound `COc1ccc(CC(=O)OCc2cc3ccc(C)cc3[nH]c2=O)cc1`, the Potency is inactive: > 76.9 µM.

Turning to `OC1C[N+]2(CCCCC2)C1`, the Potency was inactive: > 76.9 µM.

For `O=C(NCCN1CCCCC1)c1c(O)c2ccccc2[nH]c1=O`, the Potency entry was “inactive”.

With `CCCNS(=O)(=O)c1ccc(CCC(=O)Nc2ccc3c(c2)OCO3)cc1`, the Potency is inactive: > 76.9 µM.

On to `CCOC(=O)c1[nH]c2ccc(OCC)cc2c1NC(=O)CN1CCC2(CC1)OCCO2`, for which the Potency was inactive: > 76.9 µM.

As to `Cc1cnc(NC(=O)CSc2nnc(CNc3ccc(F)cc3)n2CC2CCCO2)s1` (configuration not stated), the Potency was inactive: > 76.9 µM.

As to `C=CCc1cc(C)cc(C)c1OCCn1cncn1`, the Potency is inactive: > 76.9 µM.

With `C=CCn1c(=N)n(CC(=O)OC)c2ccccc21`, the Potency is inactive: > 76.9 µM.

In the case of `Cc1cc2ccccc2n1CCNC(=O)C1CCCC1`, the Potency is inactive: > 76.9 µM.

`O=C(O)C1C2C=CC(C2)C1C(=O)Nc1cccc(F)c1` (configuration not stated): the Potency is inactive: > 76.9 µM.

`Cc1c(NC(=O)C2CCCN2C(=O)c2cccs2)c(=O)n(-c2ccccc2)n1C` (configuration not stated): the Potency is inactive: > 76.9 µM.

As for `O=C(CCCn1nnc(-c2cccnc2)n1)c1ccc(F)cc1`, the Potency was inactive: > 76.9 µM.

In the case of `COc1c(C)cc(Br)cc1C(=O)Nc1ccc(N2CCN(S(C)(=O)=O)CC2)cc1`, the Potency was inactive: > 76.9 µM.

These data come from PubChem BioAssay AID360 (National Center for Advancing Translational Sciences (NCATS), 2006).
